# About 230 (0.21%) of roughly 110,000 compounds showed an effect of 50% or more. Some of the results follow.
# Molecular target: DPAP1 (Plasmodium falciparum, UniProt Q8IIJ9)
# Assay: primary screen, percent inhibition; read by cleavage of a fluorogenic dipeptide substrate; higher = more effect of the substance
# Set-up: species or system P. falciparum D10 trophozoite lysates; single well
# 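Note: 30 min substrate incubation versus DMSO and 10 µM JCP410 controls.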
# Chain of DPAP1 (Q8IIJ9 whole entry, looked up): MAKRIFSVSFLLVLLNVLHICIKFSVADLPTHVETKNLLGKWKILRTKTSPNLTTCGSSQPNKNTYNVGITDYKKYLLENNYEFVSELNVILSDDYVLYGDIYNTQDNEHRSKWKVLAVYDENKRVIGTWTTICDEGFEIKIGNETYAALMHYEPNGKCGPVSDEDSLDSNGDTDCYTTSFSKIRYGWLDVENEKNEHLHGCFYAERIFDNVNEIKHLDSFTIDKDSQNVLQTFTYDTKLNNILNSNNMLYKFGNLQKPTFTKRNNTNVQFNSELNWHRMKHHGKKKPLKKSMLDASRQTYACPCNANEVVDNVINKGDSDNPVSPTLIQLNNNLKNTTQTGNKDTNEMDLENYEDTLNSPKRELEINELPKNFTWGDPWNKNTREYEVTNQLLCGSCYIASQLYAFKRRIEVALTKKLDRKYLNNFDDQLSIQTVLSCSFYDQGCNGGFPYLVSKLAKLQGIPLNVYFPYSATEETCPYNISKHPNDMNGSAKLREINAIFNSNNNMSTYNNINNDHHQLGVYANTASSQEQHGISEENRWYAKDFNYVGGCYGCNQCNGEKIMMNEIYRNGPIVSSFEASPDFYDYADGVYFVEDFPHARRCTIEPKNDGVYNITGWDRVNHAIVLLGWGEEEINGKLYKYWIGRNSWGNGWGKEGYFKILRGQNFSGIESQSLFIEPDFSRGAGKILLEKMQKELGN
row,SMILES,% Inhibition @ 10 uM [%]
1,Cc1cccc(N2CCN(C(=O)CCC(=O)O)CC2)c1C,-3.24
2,CCOc1ccc(N2C(=O)CC(N3CCN(c4ccc(F)cc4)CC3)C2=O)cc1 (stereo not shown),-6.67
3,CCOc1ccc(NC(=O)COc2ccc(C)cc2)cc1,-2.03
4,COc1ccc(C2C3=C(O)CC(c4ccccc4)CC3=NC(C)=C2C(=O)Nc2ccccn2)c(OC)c1 (stereo not shown),0.851
5,COc1ccccc1NCC(O)CN (stereo not shown),24.8
6,Cn1c(=O)c2sccc2n2c(CCC(=O)NC3CCN(Cc4ccccc4)CC3)nnc12,-6.94
7,Cc1ccc(-n2c3c(c(O)c(-c4ccccc4)c2=O)C(=O)CC(C)(C)C3)cc1,4
8,CCOC(=O)c1c(C)nc2n(CCN3CCOCC3)c3ccccc3n12,0.486
9,COc1cc(C(=O)NCc2nnc(SCc3cccnc3)o2)cc(OC)c1OC,-5.27
10,O=C(Nc1c(C(=O)O)oc2ccc(Br)cc12)c1ccccc1,2.25
11,CCCCNC(=O)c1ccc(CNS(=O)(=O)c2ccc(Br)cc2)cc1,0.208
12,Cc1ccc(C)c(Cn2nc3nc(C)nc(N4CCC(CNC(=O)OC(C)(C)C)CC4)c3n2)c1,-3.08
13,OCC1CCCCN1C1CN2CCC1CC2 (stereo not shown),1.57
14,COc1ccccc1CN1CCN(Cc2ccc(OC)c(OC)c2OC)CC1,-4.21
15,CCc1c(C)c2cc3c(C)c(C)oc3c(C)c2oc1=O,-1.15
16,COC(=O)CNC(=O)COc1ccc(Cl)cc1Cl,-3.52
17,O=C(O)c1ccc(NC2=CC(c3ccccc3)N(c3ccc(C(=O)O)cc3)C2=O)cc1 (stereo not shown),6.84
18,COc1ccc(CC(=O)Nc2cc3c(cc2C(C)=O)OCO3)cc1OC,-1.98
19,CC1=C(C(=O)Nc2ccccc2C(F)(F)F)C(c2ccc3c(c2)OCO3)C2=C(O)CC(C)(C)CC2=N1 (stereo not shown),3.62
20,CC1CCN(C(=O)CN(c2ccccc2Cl)S(C)(=O)=O)CC1,3.81
21,O=Cc1c(Cl)[nH]c2ccccc12,1.08
22,CC(C)CC(=O)Nc1ccc2oc(-c3ccc(Cl)cc3)nc2c1,-1.66

row,SMILES,% Inhibition @ 10 uM [%]
1,Cn1ncc2c(N3CCC(C(N)=O)CC3)ncnc21,0.426
2,CCC(Sc1nc2ccsc2c(=O)n1Cc1ccccn1)C(=O)NCc1ccc(C)cc1 (stereo not shown),2.07
3,CCOc1ccc2nc(Nc3nc(C)c(CC)c(O)n3)nc(C)c2c1,-1.17
4,O=C1NC(=O)/C(=C\c2cccs2)S1,4.86
5,c1ccc(-c2onc3ccc4c5ccccc5oc4c23)cc1,-0.693
6,CCN1CCN(c2cnn(C34CC5CC(CC(C5)C3C(=O)O)C4)c(=O)c2Cl)CC1 (stereo not shown),1.15
7,COc1ccccc1NC(=O)C1=C(C)Nc2nc(-c3ccccc3Cl)nn2C1c1cccnc1 (stereo not shown),1.28
8,CSc1nc(-c2ccccc2)ccc1C#N,-6.18
9,COc1ccc(C(=O)OCCN2CCOCC2)cc1,-4.74
10,Cc1ccc(S(=O)(=O)Nc2ccccc2/N=C/C=C(\O)c2ccc3c(c2)OCO3)cc1,-0.864
11,COc1ccc(C(CC(=O)c2ccccc2)Sc2ccccc2N)cc1 (stereo not shown),-0.0267
12,Cc1nc(CSc2nnc(-c3ccco3)n2-c2ccccc2)cs1,2.77
13,CC1=CC2=NC(=O)/C(=C\c3c(C)[nH]c4ccc(C)cc34)C(=N)N2O1,-5.1
14,CC(=O)Nc1ccc(NC(=O)C2CC2(c2ccccc2)c2ccccc2)cc1 (stereo not shown),-2.15
15,CCOC(=O)N1CCC(N2CCCC(CO)C2)CC1 (stereo not shown),-3.82
16,Cc1cccc(-c2nnc(C3CCN(S(C)(=O)=O)CC3)o2)c1,2.34
17,O=C(CSc1nc2ccccc2[nH]1)Nc1ccc2nc(SCC(=O)N3CCCC3)sc2c1,1.35
18,Cc1cc(C)cc(OCCNS(=O)(=O)c2cccs2)c1,5.97
19,Clc1ccccc1CN1CCN(Cc2cccnc2)CC1,3.12
20,CCCN1CCC(Nc2ccc3[nH]ncc3c2)CC1,1.57
21,Cc1cccc(NC(=O)c2cccc(Br)c2)c1C,3.53
22,COc1ccc(Cl)cc1NC(=O)CN(Cc1ccc(F)cc1)S(=O)(=O)c1ccccc1,2.27

row,SMILES,% Inhibition @ 10 uM [%]
1,CCC(C(=O)N1CCN(C)CC1)n1nc(C)c2sc3ccccc3c2c1=O (stereo not shown),-0.856
2,Cc1nc(NC(=O)C2C3C=CC(C3)C2C(=O)O)sc1C (stereo not shown),47
3,COc1cc(/C=C2\SC(=O)N(CC(=O)Nc3ccc(C)cc3)C2=O)cc(Cl)c1O,-5.4
4,NC(=O)c1cc(S(=O)(=O)N2CCN(C3CCCCC3)CC2)cs1,7.08
5,CC1(C)CC(=O)c2c(nc(S)c(C#N)c2-c2ccc(Cl)cc2)C1,22.4
6,Cc1ccn2cc(-c3ccc4c(c3)OCO4)cc2c1,0.331
7,CC1=C(C#N)C(=O)NC(=O)/C1=C\c1ccc(-c2ccc(C)c(Cl)c2)o1,-4.93
8,CCCC[C@@H](NC(=O)CC#N)C(=O)Nc1ccccc1,1.35
9,COc1cccc(C2=CC(c3ccc(OC(F)F)cc3)n3ncnc3N2)c1 (stereo not shown),6.36
10,CCN1C(=O)[C@H]2Cc3c([nH]c4ccccc34)[C@@H](c3cc(OC)c(OC)c(OC)c3)N2C1=S,-1.99
11,CCOC(=O)c1c(C)n(CCOc2ccc(C)cc2)c2ccc(O)cc12,1.63
12,CCOC(=O)C1=C(CN2CC(C)CC(C)C2)NC(=O)NC1c1cccc(OC)c1OC (stereo not shown),0.44
13,C=CCNC(=O)CN1N=C(c2ccccc2)CCC1=O,-1.21
14,O=C(Cn1ncc2c1-c1ccccc1OC2)Nc1nc2ccccc2s1,3.32
15,OC(COCc1ccc(Cl)cc1)CN1CCN(c2ccccc2F)CC1 (stereo not shown),-0.478
16,N#CC1=C(N)Oc2c(ccc3ccccc23)C1c1ccsc1 (stereo not shown),-0.833
17,O=C(O)c1ccccc1C(=O)NCc1ccc2[nH]c3c(c2c1)CCCC3,-5.58
18,CCOC(=O)c1oc2ccc(S(=O)(=O)N3CCC(c4c(C)[nH]c5ccccc45)CC3)cc2c1C,3.76
19,Cc1ccccc1C(=O)N1CCCCC1CO (stereo not shown),1.83
20,Cc1cccc2c(O)c(NC(=O)NCC3CC3)cnc12,-1.31

# — publication PMC6919601, “Identification of Plasmodium dipeptidyl aminopeptidase allosteric inhibitors by high throughput screening” (PLoS ONE, 2019)
